ChEMBL document CHEMBL4888484, “Replenishing the malaria drug discovery pipeline: Screening and hit evaluation of the MMV Hit Generation Library 1 (HGL1) against asexual blood stage Plasmodium falciparum ,using a nano luciferase reporter read-out” (2022)
Hit rate of the full screen: of about 150,000 compounds, about 540 (0.36%) showed an effect of 50% or more. The list shows a part of the results.

Each compound was assayed on Plasmodium falciparum (assay: Primary screen in NF54 nanoGlo assay, in single point, at 2uM, 72h; a lower Z score goes with more inhibition). Details: timepoint 72 hour.
Assay type: functional, Erythrocyte
CC#CCCN[C@H]1CC(C)(C)OC1(C)C was tested, and the “% Inhibition” value was -1% and the Z score was 0.15. With c1cnc(N2C[C@H]3CC[C@@H](C2)N(Cc2nnc(C4CC4)o2)C3)nc1 the “% Inhibition” value was 6% and the Z score was -1.06. For CCCN1C(=O)[C@@H]2CCC(=O)N2c2ccc(C(=O)N3CCC4(CC3)OCCO4)cc21, the “% Inhibition” value was 10% and the Z score was -1.1. O=c1oc2ccccc2n1S(=O)(=O)c1ccccc1 was tested, and the “% Inhibition” value was -16% and the Z score was 1.9. CCCn1nnnc1NC(=O)N[C@H]1CN2CCC1CC2 was tested, and the “% Inhibition” value was -2% and the Z score was 0.22. With CCn1c(=O)c(N2CCC(C(=O)N3CCC4(CC3)OCCO4)CC2)nc2ccccc21 the “% Inhibition” value was -2% and the Z score was 0.39. In the case of O=C(N[C@@H](Cc1ccccc1)c1ccccc1)c1nn(Cc2ccccc2)c2nccc(-c3cccs3)c12, the “% Inhibition” value is reported as -10% and the Z score is reported as 1.06. With CCc1cccc(NC(=O)N2[C@H]3CC[C@@H]2c2cncnc2C3)c1 the “% Inhibition” value was -6% and the Z score was 1.16. In the case of Cc1ccccc1CNC(=O)[C@H]1CCCN(S(=O)(=O)c2ccc3[nH]c(=O)oc3c2)C1, the “% Inhibition” value is reported as -17% and the Z score is reported as 1.71. O=C(Cc1cccc2ccccc12)N1CCN(Cc2ccccc2)CC1 was tested, and the “% Inhibition” value was -10% and the Z score was 1.22. Cc1ccc(OS(=O)(=O)c2cc3oc(=O)[nH]c3cc2Cl)cc1 was tested, and the “% Inhibition” value was -4% and the Z score was 0.46. With NC(=O)[C@]12CCC[C@H]1CN(Cc1ccc(OCC(F)(F)F)nn1)C2 the “% Inhibition” value was 3% and the Z score was -0.58. For Cc1cnccc1N1CCC[C@H]1c1cccnc1, the “% Inhibition” value was -4% and the Z score was 0.66. O=C1NC(=O)C2(Cc3ccccc3N3CCCC32)C(=O)N1c1ccccc1 (centres undefined) was tested, and the “% Inhibition” value was 34% and the Z score was -3.9. For CN(C)[C@@H](CN)c1ccc(C(F)(F)F)cc1, the “% Inhibition” value was -3% and the Z score was 0.42. With CCC[C@H](NC(=O)c1cnn(C(C)C)c1C)C(=O)N1CCc2sccc2C1 the “% Inhibition” value was -3% and the Z score was 0.47. CC(Cn1cccn1)NC1CCOC1=O (centres undefined) was tested, and the “% Inhibition” value was -5% and the Z score was 0.83. For O=C(c1ccc[nH]1)N1C[C@@H]2CC[C@H]1CN(Cc1ccncc1)C2, the “% Inhibition” value was 0% and the Z score was -0.04. In the case of O=C(c1cc(-c2ccccc2)c(N2CCCCCC2)s1)N1CCC2(CC1)OCCO2, the “% Inhibition” value is reported as -17% and the Z score is reported as 1.98. O=C(Cc1ccccc1)N1CC2(C1)CN(C(=O)c1ccccc1)C[C@@H]1C[C@@H](O)CN12 was tested, and the “% Inhibition” value was -8% and the Z score was 1.21. For Cc1nnc(CNC(C)C(C)c2ccccc2C(F)(F)F)o1 (centres undefined), the “% Inhibition” value was -10% and the Z score was 1.18. For O=C(c1cn2ccccc2n1)N1C[C@H](c2ccccc2)[C@@H]2[C@H]1C1CCN2CC1, the “% Inhibition” value was 3% and the Z score was -0.53. CC(C)n1c(=O)c(-c2ccc(C(=O)N3CCC4(CC3)OCCO4)cc2)nc2cccnc21 was tested, and the “% Inhibition” value was 0% and the Z score was 0.05. With O=C(c1ccncc1F)N1C2CCC1c1ccccc12 the “% Inhibition” value was -17% and the Z score was 2.12. In the case of O=c1oc2cc(Cl)ccc2n1C(c1ccccc1)(c1ccccc1)c1ccccc1, the “% Inhibition” value is reported as 23% and the Z score is reported as -2.51. With COCCN1C[C@@H]2CC[C@H]1CN(C(=O)c1cc(C(C)C)on1)C2 the “% Inhibition” value was 4% and the Z score was -0.35. With CCc1nocc1CN1[C@H](C(=O)NC2CC2)C[C@@H]2OCC[C@@H]21 the “% Inhibition” value was 6% and the Z score was -0.9. In the case of O=C(c1cccc(N2CCCN(Cc3ccccc3)C2=O)c1)N1CCC2(CC1)OCCO2, the “% Inhibition” value is reported as -10% and the Z score is reported as 1.48. O=C(CCc1ccccc1)N1C2CCC1c1cncnc1C2 (centres undefined) was tested, and the “% Inhibition” value was -8% and the Z score was 1.07. For CC[C@H](C)Oc1cccc2c1cc(C(=O)N1CCCC1)n2Cc1ccccc1, the “% Inhibition” value was -22% and the Z score was 2.52. With CS(=O)(=O)NCCCNc1ccc(C#N)c(Cl)c1 the “% Inhibition” value was -6% and the Z score was 0.9. COc1ccc(CCNCc2cnc(N)nc2)cc1OC was tested, and the “% Inhibition” value was -4% and the Z score was 0.62. Cn1nc(C(=O)N2C[C@@H](c3ccccc3)[C@@H]3[C@H]2C2CCN3CC2)ccc1=O was tested, and the “% Inhibition” value was -12% and the Z score was 1.35. For CCc1ccc(CN2C[C@@H]3CC[C@H]2CN(C)C3)nc1, the “% Inhibition” value was 1% and the Z score was -0.19. In the case of c1ccc(CCN2C[C@@H]3CC[C@H]2CN(Cc2cccnc2)C3)cc1, the “% Inhibition” value is reported as 16% and the Z score is reported as -2.06. For C[C@H]1Cc2cc(NC(=O)CN3CCCC3=O)ccc2O1, the “% Inhibition” value was -1% and the Z score was 0.16. O=C1NCCCCCCN[C@H]2CCC[C@@H]12 was tested, and the “% Inhibition” value was 11% and the Z score was -1.38. Cc1ccc(C2CC(c3cccnc3)Nc3ncnn32)cc1 (centres undefined) was tested, and the “% Inhibition” value was 42% and the Z score was -5.68. COc1ccccc1Cn1cc(C(=O)NCCC(C)C)c(=O)c(C(=O)N(C)CCCN(C)C)c1 was tested, and the “% Inhibition” value was 3% and the Z score was -0.37. With Cc1cnn(CC(C)NC2CC(C)OC2=O)c1 (centres undefined) the “% Inhibition” value was -4% and the Z score was 0.56. With Cc1cccnc1C[C@H](C)N(C)CCC(=O)Nc1cccc(C)c1C the “% Inhibition” value was -1% and the Z score was 0.08. For COCC(O)CN1CC2CN3CCCCC3C2C1 (centres undefined), the “% Inhibition” value was -13% and the Z score was 1.18.
